Experimental data as given in patent publication US20220125947A1.

B1: VG9B152 (antibody, human IgG1, lambda)
heavy: EVQLVESGGGLVRPGGSLRLSCEASGFTFSSYSMIWVRQAPGKGLEWVSSISSSSDYIYNADSVKGRFTISRDNAKNSLYLQMNSLRAEDTAVYYCARDWELLGFDCWGQGTTVTVSS[human IgG1 constant region omitted here]
light: SYELMQPPSVSVSPGQTASITCSGDKLGDKYACWYQQKPGQSPVLVIYQHNKRPSGIPERFSGSNSGKTATLTISGTQAMDEADYYCQAWDSTTVVFGGGTKLTVLGQPKAAPSVTLFPPSSEELQANKATLVCLISDFYPGAVTVAWKADSSPVKAGVETTTPSKQSNNKYAASSYLSLTPEQWKSHRSYSCQVTHEGSTVEKTVAPTECS
B2: VG9B64 (antibody, human IgG1, kappa)
heavy: QVQLVESGPTLVKPTQTLTLTCTFSGFSLSISGVSVGWIRQPPGKALEWLALIYWNDDKRYSPSLQSRVTITKDTSKNQVVLTVTNMDSVDTATYYCVHSGQWLEGDAFDIWGQGTMVTVSS[human IgG1 constant region omitted here]
light: [about 100 residues omitted here][about 120 residues omitted here]
B3: VG9B21 (antibody, human IgG1, kappa)
heavy: EVQLLESGGGLVKPGGSLRLSCAASGFSFSNYDMNWVRQAPRKGLEWVSSISSSSHYIYYADSLKGRFTISRDNAKNSLFLQMNSLRAEDTAVYYCARDRGVTTDYYYYALDVWGQGTMVTVSS[human IgG1 constant region omitted here]
light: DIVMTQSPSSLSASVGDRVTITCRASQGIYNYLAWYQQKPGNVPKLLIYAASTLQSGVPSRFSGSGSGTDFSLTISSLQPEDFTTYYCQKYNRAPFTFGPGTKVDIKRTVAAPSVFIFPPSDEQLKSGTASVVCLLNNFYPREAKVQWKVDNALQSGNSQESVTEQDSKDSTYSLSSTLTLSKADYEKHKVYACEVTHQGLSSPVTKSFNRGEC
B4: VG9B452 (antibody, human IgG1, lambda)
heavy: QVQLVESGPGLVKPSETLSLTCTVSGGSISNYYWSWIRQPAGKGLGWIGRIYSSGITNYNPSLKSRVTMSVDTSKNQLSLKLSSVTAADTAVYYCAGIVGVKGAFAIWGQGTMVTVSS[human IgG1 constant region omitted here]
light: QSALTQPASVSGSPGQSITISCTGTSSDVGGYNYVSWYQQHPGKAPKLMIYEVSNRPSGVSNRFSGSKSGNTASLTISGLQAEDEADYYCSSYTSTSVVFGGGTKLTVLGQPKAAPSVTLFPPSSEELQANKATLVCLISDFYPGAVTVAWKADSSPVKAGVETTTPSKQSNNKYAASSYLSLTPEQWKSHRSYSCQVTHEGSTVEKTVAPTECS

Columns and labels:
[1] = molecular target: T cell receptor (TCR) Vγ9 (TRGV9) (human), Q99603; assay: cell-based or functional assay
[2] = molecular target: T cell receptor Vδ2 (TRDV2) on T cells in PBMCs (human), A0JD36; assay: cell-based or functional assay
Chain of T cell receptor Vδ2 (TRDV2) on T cells in PBMCs (human), A0JD36 (A0JD36 20-115, stated change not applied): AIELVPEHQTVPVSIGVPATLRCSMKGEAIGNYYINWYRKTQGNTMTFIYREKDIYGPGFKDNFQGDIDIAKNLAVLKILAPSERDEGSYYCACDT

Chain of T cell receptor (TCR) Vγ9 (TRGV9) (human), Q99603 (Q99603 21-122): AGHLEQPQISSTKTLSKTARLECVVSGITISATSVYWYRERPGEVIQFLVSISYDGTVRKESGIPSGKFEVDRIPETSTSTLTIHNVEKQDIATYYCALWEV

CD25+ (Vg9+ cells) [1] [%]	CD71+ (Vg9+ cells) [1] [%]	Granzyme B (Luminex, supernatant) [1]	IFNγ (Luminex, supernatant) [1]	IL6 (Luminex, supernatant) [1]	TNFα (Luminex, supernatant) [1]	Vg9 T cell % [1] [%]	CD25+ (Vg9+ cells), flow staining [2] [%]	CD71+ (Vg9+ cells), flow staining [2] [%]	Granzyme B, Luninex (supernatant) [2]	IFNγ, Luninex (supernatant) [2]	IL6, Luninex (supernatant) [2]	TNFα, Luninex (supernatant) [2]	Vg9 T cell %, flow staining [2] [%]	Binder
8.1	81.9	1060	344	118	51	3	–	–	–	–	–	–	–	B1
21.4	79.6	863	383	122	46	4	–	–	–	–	–	–	–	B2
27.5	91.8	3150	1660	459	3330	7.1	–	–	–	–	–	–	–	B3
–	–	–	–	–	–	–	26.4	84.9	1830	1040	273	1890	3.6	B4
